What is called TGI is the concentration at which net growth stops. In general, GI50 refers to the concentration at which growth is held to half of that of the control. A lower GI50 goes with greater sensitivity of the cells.

Each structure is given as a SMILES string. Values joined by “and” are separate entries in the source; they are usually repeats but may differ in a detail not shown here. Equal values may be shown once. Bounds are passed on as bounds.

For test [1], the system named is COLO 205 colon cancer cells.
Test [2] relates to A549/ATCC non-small cell lung cancer cells.
Test [3] deals with NCI-H226 non-small cell lung cancer cells.
Test [4] concerns COLO 205 colon cancer cells. The test is described as follows: cells. The conditions noted are these: Homo sapiens; for GI50: COLO 205.
The test system of test [5] is PC-3 prostate cancer cells.
In test [6] the test system is BT-549 breast cancer cells.
In test [7] the test system is HCT-116 colon cancer cells.
Test [8] deals with DU-145 prostate cancer cells.
In test [9] the test system is MDA-MB-231/ATCC breast cancer cells.

For the compound `CCCC(=O)NC1CCc2cc(OC)c(OC)c(OC)c2-c2ccc(C(C)=O)cc21` (centres unmarked), the TGI is 15.6 nM and < 10 nM in test [1]; greater than 100000 nM in test [2]; 18.9 nM and < 10 nM in [3]. The GI50 in [2] and in [4] was less than 10 nM in each case.
As to `COc1cc2c(c(OC)c1OC)-c1ccc(OC)c(=O)cc1[C@@H](NC(C)=O)CC2` [Colchicine, reference compound], the TGI was greater than 100000 nM in test [2]; less than 10 nM in the test on SK-MEL-2 melanoma cells; greater than 100000 nM in [5]; greater than 100000 nM in the test on RPMI-8226 leukemia cells; 50200 nM in [6]; 100000 nM in test [7]. The TGI was 144 nM in the test on LOX IMVI melanoma cells; greater than 100000 nM in the test on KM12 colon cancer cells; greater than 100000 nM in the test on ACHN renal cancer cells; 114 nM with HT29 colon cancer cells; 28400 nM in the test on M14 melanoma cells; greater than 100000 nM in test [8]. The TGI in test [9] was greater than 100000 nM. Besides, the GI50 was 29.5 nM in the test on KM12 colon cancer cells and 15 nM in test [4]. The activity at 100 µM in test [4] (COLO 205, read-out: Percent Growth, log10 conc -4.0) is -81%. Also, in [4] (COLO 205, read-out: Percent Growth, log10 conc -7.0), the activity at 0.1 µM came to 23%. Further, the activity at 0.01 µM in [4] (COLO 205, read-out: Percent Growth, log10 conc -8.0) was 56%.

The values are drawn from patent US5760092A, “Allocolchinones and uses thereof” (Brandeis University, priority 1996, dated 1998).
